Some of the results follow. At the low end of the ranking, values are background and their order means little.

Our source for the binding signal values is paper PMC10668032.

In the experiment the target is SIX1-Q177R homeodomain (UniProt Q15475). In words: universal protein binding microarray. As to conditions: Universal all-10-mer PBM (8x60K, AMADID 030236), 300 nM GST-tagged protein, Alexa Fluor 488 anti-GST; buffer, salt, pH and temperature not stated; high values mean tight binding; most listed sequences are background and not binding sites; double strand, one strand shown.
Take CGCCGTTC: the binding signal stood at 0.0524 E-score.
For GTGTACAC the value was 0.474 E-score; for TATCTAAA, 0.0642 E-score; for AATTGATA, -0.177 E-score.
As for GAACTGAA, the figure is -0.155 E-score; as for CACCCATG, 0.34 E-score; as for CGAGTTTA, -0.0171 E-score.
Take AACAACCT: the binding signal is -0.194 E-score.
For CGTCGTTA the value was -0.00483 E-score; for ACTGTCCC, -0.063 E-score.
As to CAACACAC, the binding signal came out at 0.342 E-score.
For AAGGTAGA, the binding signal was 0.049 E-score.
CTCACACA: the binding signal was found to be 0.0797 E-score.
As for GATGTGCC, the binding signal is -0.26 E-score.
On to ATTCCAGG, for which the binding signal is -0.0187 E-score.
As for ACCAAGCC, the binding signal was -0.0717 E-score.
As for AGTGGTCG, the binding signal is 0.0862 E-score.
For GACCCGAC the value was 0.193 E-score; for CCCACAAC, 0.0367 E-score; for AGATTACC, -0.0927 E-score.
For AATTGTGT the value was 0.137 E-score; for ACTTGTCG, -0.142 E-score; for ATTCATCG, -0.147 E-score.
For the sequence GATACTCA, the binding signal was 0.16 E-score.
As to GAGTCTTA, the binding signal is -0.0743 E-score.
GTACCGAC: the binding signal is -0.0434 E-score.
As to CGCGCAAG, the binding signal was -0.0893 E-score.
As for GGACGAAA, the figure is -0.106 E-score; as for AGATGGCT, -0.245 E-score.
Regarding CGTTCTAC, the binding signal is 0.125 E-score.
Consider CACATATA, for which the binding signal is 0.0466 E-score.
CTCTACCC: the binding signal was found to be 0.105 E-score.
Turning to CACCTTAA, the binding signal was determined as 0.172 E-score.
For the sequence GGCAACGA, the binding signal was -0.0235 E-score.
For CGAAGTTA, the binding signal is -0.205 E-score.
ATTTACGA: the binding signal is -0.0623 E-score.
With ATCGGAGC, the binding signal was -0.196 E-score.
Take ACGTGGCC: the binding signal is -0.198 E-score.
CGTAGGAG: the binding signal is -0.146 E-score.
On to AGCTAACA, for which the binding signal worked out at 0.0706 E-score.
GCCGATCC: the binding signal amounted to 0.19 E-score.
For the sequence ATCTGCTC, the binding signal was -0.0557 E-score.
For CGGCACAA, the binding signal was determined as 0.149 E-score.
On to GTTCTCTA, for which the binding signal was -0.0731 E-score.
In the case of ACTTGTCC, the binding signal is -0.203 E-score.
Turning to AAAGTACT, the binding signal worked out at 0.00101 E-score.
For the sequence ACTCCAAC, the binding signal was 0.121 E-score.
As to CCCCATCG, the binding signal worked out at 0.107 E-score.
As for GGCTTACA, the binding signal was 0.12 E-score.
TAGCATCA: the binding signal is -0.147 E-score.
For the sequence CCTGTCGA, the binding signal was -0.0833 E-score.
As to GCAAGGAA, the binding signal was -0.161 E-score.
For ACTTGCTA, the binding signal was -0.0699 E-score.
As for ACTGAGGA, the figure is -0.057 E-score.
As for ACATGAGT, the binding signal was 0.0219 E-score.
As for AACTTCAT, the binding signal was -0.148 E-score.
For TACAGGCA, the binding signal is -0.0814 E-score.
With GGCATAGA, the binding signal is -0.0128 E-score.
As for GTGGACCA, the binding signal was -0.00241 E-score.
Take CTTCCGAA: the binding signal is 0.0705 E-score.
Turning to GTCGTACA, the binding signal was 0.26 E-score.
On to CGACAGCC, for which the binding signal is -0.323 E-score.
Turning to CACGTCCG, the binding signal stood at 0.0459 E-score.
CTGTAATC: the binding signal is -0.192 E-score.
With CCTTGGGC, the binding signal is -0.16 E-score.
Regarding ACTATCTG, the binding signal is -0.0702 E-score.
Consider TCCGAACA, for which the binding signal is -0.0175 E-score.
As for AGTTGCGA, the figure is 0.01 E-score.
GACTTCTA: the binding signal is -0.202 E-score.
On to ACCGCGGA, for which the binding signal is 0.142 E-score.
As to CGAAGACA, the binding signal amounted to 0.0961 E-score.
For AACAGGTG the value was 0.327 E-score; for ATCCTAGA, -0.0765 E-score.
As for AGCTGGTC, the figure is -0.211 E-score.
AAGAAATC: the binding signal was -0.281 E-score.
With GTCGTCTA, the binding signal is -0.0906 E-score.
As to GGATCATA, the binding signal is 0.184 E-score.
For CCTTCGTA the value was -0.191 E-score; for AATTTTTA, -0.0654 E-score.
Turning to TAACATGA, the binding signal was -0.2 E-score.
With ATGGGCTC, the binding signal is 0.0646 E-score.
CATATGGA: the binding signal was found to be 0.116 E-score.
AAGCTGGT: the binding signal was -0.114 E-score.
In the case of ATGATGTC, the binding signal is -0.0172 E-score.
With GGAGCGCC, the binding signal was -0.132 E-score.
On to CCACATAA, for which the binding signal was determined as 0.00032 E-score.
On to AGTTCCCC, for which the binding signal is -0.0965 E-score.
Take CACTTGTC: the binding signal was 0.161 E-score.
For TAGCACCA the value was 0.224 E-score.
Take CAGTTTGA: the binding signal was -0.105 E-score.
Turning to AGTGCGTC, the binding signal was -0.105 E-score.
Regarding CTGGTGAA, the binding signal was -0.0336 E-score.
On to CCTTTCAC, for which the binding signal is -0.158 E-score.
Regarding GACCATCA, the binding signal was -0.103 E-score.
For AAAAAGTT the value was -0.073 E-score; for CCAATTAG, -0.0478 E-score.
As for AGTATCCA, the figure is 0.146 E-score.
As for GCGGTACC, the figure is -0.0496 E-score; as for AGGCATAG, -0.129 E-score; as for CGTCTAGC, -0.082 E-score.
For the sequence ACGCGGAA, the binding signal turned out to be 0.0707 E-score.
For the sequence CAGTGGTC, the binding signal was -0.148 E-score.
As for AGAATTAG, the figure is -0.128 E-score; as for AAGCGCCG, -0.27 E-score; as for ACTGATAG, 0.0532 E-score.
TAAACAAA: the binding signal was -0.194 E-score.
On to CTACGAGC, for which the binding signal is 0.0139 E-score.
With AACTCATC, the binding signal is -0.227 E-score.
Consider ATGCGGGA, for which the binding signal came out at 0.00549 E-score.
As for CTAGAACC, the figure is -0.0872 E-score.
As for GCTGCCAA, the binding signal was -0.141 E-score.
AGTTTCAG: the binding signal is -0.162 E-score.
Take ACAACTAT: the binding signal was -0.14 E-score.
Turning to AGTCTCGG, the binding signal was -0.00434 E-score.
On to ACAATTAT, for which the binding signal was -0.152 E-score.
For AAGGGGGC the value was 0.0712 E-score; for ACAGTATG, -0.15 E-score.
On to ATGTGAGG, for which the binding signal was found to be 0.0472 E-score.
As for CTTCTCTA, the figure is -0.157 E-score.
AAACGGTA: the binding signal was -0.116 E-score.
As for ATGGCGTG, the binding signal is 0.0502 E-score.
Regarding AGATTTCA, the binding signal was -0.0603 E-score.
Take CAGGAGGC: the binding signal is -0.335 E-score.
On to AGACGACA, for which the binding signal stood at 0.0584 E-score.
Turning to AGTTTATG, the binding signal is -0.186 E-score.
As for AAGGAGCG, the figure is -0.274 E-score; as for GTTAGCCA, -0.0617 E-score.
As for ACTTCCTA, the figure is -0.0948 E-score; as for CAGGCAGA, -0.259 E-score; as for CCACCGAA, 0.0837 E-score.
As for GCGGGAGA, the figure is -0.0909 E-score; as for TACTCTGA, 0.0251 E-score.
Regarding AGCTGGTA, the binding signal was -0.082 E-score.
Turning to CGCTGGCA, the binding signal was -0.105 E-score.
With ACTGGACG, the binding signal is -0.0353 E-score.
On to AGTTTTTA, for which the binding signal was -0.295 E-score.
For the sequence CCTGGCAG, the binding signal was -0.0508 E-score.
Take GATTTGGA: the binding signal came to 0.0324 E-score.
As for CCTTACAA, the figure is -0.0516 E-score.
Take GTATCTAA: the binding signal was determined as 0.14 E-score.
Regarding ATCAGTTC, the binding signal is -0.0929 E-score.
As for GCTCCACA, the figure is 0.0813 E-score.
As for CTAGGCAG, the figure is -0.163 E-score; as for GCATAGTA, 0.136 E-score.
On to GCGGGACA, for which the binding signal was 0.107 E-score.
In the case of CGTCATGC, the binding signal is -0.13 E-score.
Consider AGTGTTGA, for which the binding signal came to 0.318 E-score.
Consider AACGACCT, for which the binding signal was -0.112 E-score.
In the case of AACACGTG, the binding signal was determined as 0.371 E-score.
Take AGGTTGGG: the binding signal is -0.0791 E-score.
As for AGATATAT, the binding signal is -0.0664 E-score.
Consider CACTTCCG, for which the binding signal came to 0.138 E-score.
For the sequence AATGACAA, the binding signal is -0.048 E-score.
CCTTTAAC: the binding signal came to 0.0243 E-score.
For AGAGTCTC, the binding signal is -0.237 E-score.
For AACTGGCT, the binding signal is -0.173 E-score.
With AGTCTGTG, the binding signal worked out at 0.00522 E-score.
For the sequence AGCTCACT, the binding signal was -0.224 E-score.
As for CGAACTGA, the figure is -0.166 E-score; as for ACTGGCTC, -0.0241 E-score; as for AAGGCTCG, -0.289 E-score.
In the case of AGTCTTGC, the binding signal was -0.276 E-score.
With GCAGATCC, the binding signal worked out at 0.00671 E-score.
In the case of GTTTTATA, the binding signal was -0.16 E-score.
For CGCTGCGA the value was -0.176 E-score.
For the sequence ATGTATGC, the binding signal is -0.0565 E-score.
For CACGCAGG the value was 0.264 E-score; for AAGACCCG, 0.0979 E-score; for AATTTATA, -0.126 E-score.
With GACTGCCC, the binding signal worked out at 0.018 E-score.
For CTATTTCA, the binding signal is -0.0201 E-score.
Take AACCTTGC: the binding signal is -0.0575 E-score.
